In the supplement of paper PMC4967469:

Experiments:
Assay in all cases: Viability of human cancer cell lines after 72 h of drug (GDSC screen)
Bosutinib = compound: COc1cc(Nc2c(C#N)cnc3cc(OCCCN4CCN(C)CC4)c(OC)cc23)c(Cl)cc1Cl [Bosutinib]; conditions: top dose 2 µM
Method: (§1)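 Human cancer cell lines in 384-well plates, medium with 10% serum, drug for 72 h over a 256-fold dose range (nine 2-fold or five 4-fold steps up to the top dose). Adherent lines were fixed and stained with the nucleic acid dye Syto60, suspension lines read with resazurin; signal relative to control wells, capped at 0 and 100%. One two-parameter sigmoid per drug and line, fitted in a mixed model over all curves with the slope shared within a line.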

Midostaurin = compound: CO[C@@H]1[C@H](N(C)C(=O)c2ccccc2)C[C@H]2O[C@]1(C)n1c3ccccc3c3c4c(c5c6ccccc6n2c5c31)C(=O)NC4 [Midostaurin]; conditions: top dose 0.512 µM; top dose inferred
Method: as §1

IOX2 = compound: O=C(O)CNC(=O)c1c(O)c2ccccc2n(Cc2ccccc2)c1=O [IOX2]; conditions: top dose 0.1 µM; top dose inferred
Method: as §1

NVP-BHG712 = compound: Cc1ccc(C(=O)Nc2cccc(C(F)(F)F)c2)cc1Nc1nc(-c2cccnc2)nc2c1cnn2C [NVP-BHG712]; conditions: top dose 10.24 µM; top dose inferred
Method: as §1

Mitomycin C = compound: CO[C@@]12[C@H](COC(N)=O)C3=C(C(=O)C(C)=C(N)C3=O)N1C[C@@H]1N[C@@H]12 [Mitomycin C]; conditions: top dose 16 µM
Method: as §1

Cell Line | AUC (Bosutinib) | IC50 (Bosutinib) | AUC (Midostaurin) | IC50 (Midostaurin) | AUC (IOX2) | IC50 (IOX2) | AUC (NVP-BHG712) | IC50 (NVP-BHG712) | AUC (Mitomycin C) | IC50 (Mitomycin C)
JHU-022 (head and neck, adherent) | 0.653 | 374 nM | 0.875 | > 512 nM | 0.976 | > 100 nM | 0.982 | > 10200 nM | 0.532 | 1250 nM
CHP-212 (neuroblastoma, adherent) | 0.91 | > 2000 nM | 0.724 | 131 nM | 0.974 | > 100 nM | 0.988 | > 10200 nM | 0.066 | < 62.5 nM
CHSA8926 (chondrosarcoma, adherent) | 0.917 | > 2000 nM | 0.647 | 97.2 nM | 0.972 | > 100 nM | 0.978 | > 10200 nM | 0.915 | > 16000 nM
MOG-G-UVW (glioma, adherent) | 0.8 | 933 nM | 0.883 | > 512 nM | 0.975 | > 100 nM | 0.981 | > 10200 nM | 0.342 | 368 nM
RERF-LC-Sq1 (lung squamous cell carcinoma, adherent) | 0.796 | 1490 nM | 0.963 | > 512 nM | 0.976 | > 100 nM | 0.944 | > 10200 nM | 0.616 | 2430 nM
SUP-M2 (anaplastic large cell lymphoma, suspension) | 0.933 | > 2000 nM | 0.957 | > 512 nM | 0.994 | > 100 nM | 0.919 | 9080 nM | 0.341 | 408 nM
HDQ-P1 (breast, adherent) | 0.905 | > 2000 nM | 0.918 | > 512 nM | 0.983 | > 100 nM | 0.985 | > 10200 nM | 0.58 | 1720 nM
SJSA-1 (bone, adherent) | 0.97 | > 2000 nM | 0.955 | > 512 nM | 0.974 | > 100 nM | 0.908 | > 10200 nM | 0.23 | 146 nM
MDA-MB-453 (breast, adherent) | 0.972 | > 2000 nM | 0.984 | > 512 nM | 0.984 | > 100 nM | 0.986 | > 10200 nM | 0.491 | 940 nM
T-T (oesophagus, adherent) | 0.805 | 1000 nM | 0.781 | 211 nM | 0.959 | > 100 nM | 0.929 | > 10200 nM | 0.156 | 88 nM
TE-11 (oesophagus, adherent) | 0.921 | > 2000 nM | 0.811 | 243 nM | 0.989 | > 100 nM | 0.982 | > 10200 nM | 0.158 | 102 nM
huH-1 (liver, adherent) | 0.851 | > 2000 nM | 0.984 | > 512 nM | 0.973 | > 100 nM | 0.984 | > 10200 nM | 0.569 | 1620 nM
COLO-678 (large intestine, semi-adherent) | 0.926 | > 2000 nM | 0.946 | > 512 nM | 0.983 | > 100 nM | 0.977 | > 10200 nM | 0.662 | 3220 nM
ABC-1 (lung adenocarcinoma, adherent) | 0.82 | 1460 nM | 0.764 | 223 nM | 0.98 | > 100 nM | 0.962 | > 10200 nM | 0.221 | 125 nM
WM278 (melanoma, adherent) | 0.905 | > 2000 nM | 0.933 | > 512 nM | 0.973 | > 100 nM | 0.854 | 9760 nM | 0.299 | 251 nM
NCI-SNU-16 (stomach, suspension) | 0.972 | > 2000 nM | 0.991 | > 512 nM | 0.989 | > 100 nM | 0.987 | > 10200 nM | 0.812 | 7350 nM
SW1783 (glioma, adherent) | 0.991 | > 2000 nM | 0.895 | > 512 nM | 0.885 | 91 nM | 0.991 | > 10200 nM | 0.114 | 68.2 nM
LB831-BLC (bladder, adherent) | 0.978 | > 2000 nM | 0.777 | 209 nM | 0.85 | 78 nM | 0.978 | > 10200 nM | 0.5 | 998 nM
SCC-4 (head and neck, adherent) | 0.915 | > 2000 nM | 0.807 | 323 nM | 0.972 | > 100 nM | 0.943 | > 10200 nM | 0.359 | 377 nM
EPLC-272H (lung squamous cell carcinoma, adherent) | 0.869 | > 2000 nM | 0.907 | > 512 nM | 0.976 | > 100 nM | 0.902 | > 10200 nM | 0.226 | 141 nM
U-118-MG (glioma, adherent) | 0.851 | 1910 nM | 0.965 | > 512 nM | 0.984 | > 100 nM | 0.968 | > 10200 nM | 0.643 | 2650 nM
SNU-449 (liver, adherent) | 0.952 | > 2000 nM | 0.712 | 135 nM | 0.983 | > 100 nM | 0.911 | > 10200 nM | 0.685 | 3480 nM
Hs939-T (melanoma, adherent) | 0.971 | > 2000 nM | 0.964 | > 512 nM | 0.965 | > 100 nM | 0.912 | > 10200 nM | 0.479 | 870 nM
SNU-387 (liver, adherent) | 0.904 | > 2000 nM | 0.7 | 127 nM | 0.954 | > 100 nM | 0.836 | 8140 nM | 0.623 | 2300 nM
FU-OV-1 (ovary, adherent) | 0.966 | > 2000 nM | 0.977 | > 512 nM | 0.974 | > 100 nM | 0.859 | > 10200 nM | 0.867 | > 16000 nM
RMG-I (ovary, adherent) | 0.956 | > 2000 nM | 0.907 | > 512 nM | 0.981 | > 100 nM | 0.792 | 5520 nM | 0.68 | 3490 nM

The IC50 comes from the fitted curve, where viability falls to half of the control; fits outside the tested doses are given as limits. The AUC spans the tested range (256-fold, ending at the top dose) of the same fit; values near 1 show little effect. For some assays here: A top dose marked as inferred is not printed in the source and was worked back from the curve model.
